In PubChem BioAssay AID588382 (National Center for Advancing Translational Sciences (NCATS), 2011):
In all, about 1,300 compounds went through this assay and about 150 (12%) were called active. Inconclusive results, whose numbers are uncertain, are shown with a selection of clear calls. Calls come from the whole dose curve; as a rule, active = well fitted cell-killing curve with a large enough effect; inconclusive = small, poorly fitted or top-dose-only effect, or effect the other way; inactive = flat fitted curve, though single readings scatter. Potencies beside an inconclusive call are fits to weak or partial responses and may not hold up.

Test: qHTS of small molecules that selectively kill Giardia lamblia: Hit Validation in HepG2 cytotox;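 note: compound exposure lasted overnight at 37 deg C; nearly all actives have a fitted effect of over 55% in size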;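 for activity change, negative = cytotoxicity: viability measured as cellular ATP by ATPLite luminescence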
Details: cell viability; Potency: HepG2 cytotoxicity; series mostly up to 38.3 µM; activity change, negative = cytotoxicity: at the top concentration
Outline: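 HepG2 cells seeded and incubated overnight at 37 deg C, then 23 nL compound added by pintool and incubated overnight at 37 deg C. Viability read as ATP luminescence with ATPLite after 15 min at room temperature.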
% is set by controls: 0 for no effect and ±100 for the full control effect; potency is the fitted concentration of half-maximal effect; tags give direction and shape of the fitted curve.

Row | Structure (SMILES) | Potency | activity change, negative = cytotoxicity
1 | O=C(O)CCCCCNS(=O)(=O)c1cccc2c1C(=O)c1ccccc1C2=O | inconclusive: 26.1 µM [cytotoxic, single point] | –
2 | O=C1C[C@@H](c2ccc(O[C@@H]3O[C@H](CO)[C@@H](O)[C@H](O)[C@H]3O)cc2)Oc2cc(O)ccc21 | inconclusive: 13.1 µM [cytotoxic, single point] | –
3 | Cc1nc2c(o1)C(=O)c1ccccc1C2=Nc1ccccc1 | active: 4.65 µM | –
4 | CCc1ccc(C(=O)/C=C/c2ccc([N+](=O)[O-])o2)cc1 | inconclusive: 18.5 µM [cytotoxic, single point] | –
5 | O=C(NC12CC3CC(CC(C3)C1)C2)c1ccc([N+](=O)[O-])o1 | inconclusive: 23.3 µM [cytotoxic, single point] | –
6 | c1ccc(-c2cn3nc(-c4ccccc4)sc3n2)cc1 | inconclusive: 3.69 µM [cytotoxic, partial curve] | –
7 | CC1CC(C)C(=NNC(N)=O)C(C(O)CC2CCC(=O)NC2=O)C1 (centres undefined) | – | inactive: 7.19%
8 | CC(NCCN(C)C)C1CCC2C3CCc4cc(O)ccc4C3CCC12C (centres undefined) | inconclusive: 14.7 µM [cytotoxic, single point] | –
9 | Cc1cccc(N=Nc2c(C)c(C#N)c(O)[nH]c2=O)c1 | – | inactive: 0.706%
10 | NC(=O)c1ccsc1NC(=O)c1ccc(N2CCCC2=O)cc1 | inconclusive: 4.65 µM [cytotoxic, partial curve, poor fit] | –
11 | NCCCn1c(C(=O)c2ccc(Cl)cc2)c2ccc([N+](=O)[O-])cc2[n+]1[O-] | inconclusive: 9.27 µM [cytotoxic, partial curve] | –
12 | CCn1cnc2c([N+](=O)[O-])c(NS(=O)(=O)c3ccc(C)cc3)ccc21 | – | inactive: -5.57%
13 | O=C(Cc1ccc([N+](=O)[O-])cc1)N/N=C/c1ccc([N+](=O)[O-])o1 | active: 5.21 µM | –
14 | COc1ccc(-n2nc([N+](=O)[O-])c(=NCCc3cccc(C)c3)n2O)cc1 | – | inactive: 5.18%
15 | COc1cc(C(=O)/C=C/c2cccnc2)c([N+](=O)[O-])cc1OC | inconclusive: 14.7 µM [cytotoxic, single point] | –
16 | Cc1ccc(N=Nc2c(O)ccc3n[nH]nc23)cc1 | inconclusive: 20.7 µM [cytotoxic, partial curve] | –
17 | O=[N+]([O-])c1cncc([N+](=O)[O-])c1Nc1ccccc1Cl | inconclusive: 4.65 µM [rising, single point] | –
18 | CN(C)c1cc(NC(=O)CNC(C)(C)CC(C)(C)C)c2ccccc2n1 | – | inactive: -3.21%
19 | O=C(Nc1ccc(-c2cn3ccsc3n2)cc1)C1CC1 | inconclusive: 0.927 µM [cytotoxic, full curve] | –
20 | N#CC1C=Cc2c(ccc3ccccc23)N1C(=O)c1ccccc1 (centres undefined) | – | inactive: 13.7%
21 | C=CCNC(=O)c1ccccc1NC(=O)COc1ccccc1 | – | inactive: 8.16%
22 | O=[N+]([O-])c1nn(-c2ccc(Cl)cc2)n(O)c1=NCc1ccccc1 | inconclusive: 8.26 µM [rising, partial curve, poor fit] | –

Row | Structure (SMILES) | Potency | activity change, negative = cytotoxicity
23 | O=C(Nc1ccc(-c2cn3ccccc3n2)cc1)c1ccco1 | inconclusive: 5.85 µM [cytotoxic, full curve, poor fit] | –
24 | COc1cc(/C=C/c2ccc3cccc(OC)c3n2)c(OC(C)=O)c([N+](=O)[O-])c1 | – | inactive: -5.84%
25 | CC(C)Cn1[nH]c2c3c(ccc2c1=O)C(=O)c1ccccc1C3=O | inconclusive: 13.1 µM [cytotoxic, single point] | –
26 | CC(CC(=O)Nc1ncc([N+](=O)[O-])s1)c1ccccc1 (centres undefined) | inconclusive: 0.585 µM [cytotoxic, full curve, poor fit] | –
27 | Cc1cnc([N+](=O)[O-])n1CCOC(=O)c1cccc(F)c1 | – | inactive: 15.1%
28 | COc1cccc(/C=C/c2ccc3ccccc3[n+]2C)c1OC | inconclusive: 4.14 µM [cytotoxic, partial curve] | –
29 | O=C(N/N=C/c1ccc([N+](=O)[O-])o1)c1cc(-c2cccc(Br)c2)nc2ccccc12 | inconclusive: 18.5 µM [cytotoxic, single point] | –
30 | Cc1cc(-c2ccc(C)c(S(=O)(=O)N3CCN(c4ccc([N+](=O)[O-])cc4)CC3)c2)on1 | – | inactive: -4.43%
31 | CN(C)c1nc(=NCc2cccs2)ss1 | inconclusive: 18.5 µM [cytotoxic, single point] | –
32 | O=C(N/N=C/c1ccc([N+](=O)[O-])s1)c1ccccc1 | inconclusive: 14.7 µM [cytotoxic, single point] | –
33 | Cc1cc(NC(=O)c2ccc(C(C)(C)C)cc2)no1 | inconclusive: 7.36 µM [cytotoxic, partial curve] | –
34 | CC(=O)N1CCN(c2ccc(NC(=O)c3ccc([N+](=O)[O-])o3)cc2Cl)CC1 | active: 9.27 µM | –
35 | O=C1S/C(=C\c2ccc(O)c([N+](=O)[O-])c2)C(=O)N1Cc1cccc([N+](=O)[O-])c1 | – | inactive: -21.5%
36 | CC(=O)c1c(C)[nH]c(C(=O)OCC(=O)Nc2cc(Cl)ccc2[N+](=O)[O-])c1C | inconclusive: 18.5 µM [cytotoxic, single point] | –
37 | O=[N+]([O-])c1cccc(COc2ccccc2CN2CCCC2)c1 | inconclusive: 23.3 µM [cytotoxic, single point] | –
38 | O=C(/C=C/c1ccc2c(c1)OCO2)Nc1cccnc1 | inconclusive: 10.4 µM [cytotoxic, partial curve] | –
39 | COc1cccc(/C=C/c2ccc3ccccc3n2)c1OC(C)=O | inconclusive: 11.7 µM [cytotoxic, partial curve] | –
40 | Cc1cccc(-n2nc([N+](=O)[O-])c(=NC3CCN(Cc4ccccc4)CC3)n2O)c1 | inconclusive: 0.656 µM [cytotoxic, full curve, poor fit] | –
41 | Cc1ccc(/C=N/Nc2ccnc3cc(Cl)ccc23)c(C)c1 | inconclusive: 16.5 µM [cytotoxic, partial curve] | –
42 | CCC(C(=O)OC)n1c(-c2ccccc2)nc2ccccc2c1=O (centres undefined) | – | inactive: 6.81%
43 | CS/C(Nc1cc(Cl)ccc1Cl)=C(/C#N)C(=O)c1ccco1 | inconclusive: 1.31 µM [cytotoxic, full curve] | –
44 | CCOC(=O)C1=C(C)N=c2s/c(=C/c3cccc([N+](=O)[O-])c3O)c(=O)n2C1c1cc(OC)c(OC)c(OC)c1 (centres undefined) | – | inactive: 1.65%
